Article PMC7331671
Results are given in words; binding and its absence hold for the method and conditions named. Some entries that bind do so weakly or less than the wild type.

Amino acid sequences for entries named in this document (tags omitted). A change or cut given only in a name is not applied to a line headed by its entry. Residues count along the entry.
UniProt P35590, residues 22-1138: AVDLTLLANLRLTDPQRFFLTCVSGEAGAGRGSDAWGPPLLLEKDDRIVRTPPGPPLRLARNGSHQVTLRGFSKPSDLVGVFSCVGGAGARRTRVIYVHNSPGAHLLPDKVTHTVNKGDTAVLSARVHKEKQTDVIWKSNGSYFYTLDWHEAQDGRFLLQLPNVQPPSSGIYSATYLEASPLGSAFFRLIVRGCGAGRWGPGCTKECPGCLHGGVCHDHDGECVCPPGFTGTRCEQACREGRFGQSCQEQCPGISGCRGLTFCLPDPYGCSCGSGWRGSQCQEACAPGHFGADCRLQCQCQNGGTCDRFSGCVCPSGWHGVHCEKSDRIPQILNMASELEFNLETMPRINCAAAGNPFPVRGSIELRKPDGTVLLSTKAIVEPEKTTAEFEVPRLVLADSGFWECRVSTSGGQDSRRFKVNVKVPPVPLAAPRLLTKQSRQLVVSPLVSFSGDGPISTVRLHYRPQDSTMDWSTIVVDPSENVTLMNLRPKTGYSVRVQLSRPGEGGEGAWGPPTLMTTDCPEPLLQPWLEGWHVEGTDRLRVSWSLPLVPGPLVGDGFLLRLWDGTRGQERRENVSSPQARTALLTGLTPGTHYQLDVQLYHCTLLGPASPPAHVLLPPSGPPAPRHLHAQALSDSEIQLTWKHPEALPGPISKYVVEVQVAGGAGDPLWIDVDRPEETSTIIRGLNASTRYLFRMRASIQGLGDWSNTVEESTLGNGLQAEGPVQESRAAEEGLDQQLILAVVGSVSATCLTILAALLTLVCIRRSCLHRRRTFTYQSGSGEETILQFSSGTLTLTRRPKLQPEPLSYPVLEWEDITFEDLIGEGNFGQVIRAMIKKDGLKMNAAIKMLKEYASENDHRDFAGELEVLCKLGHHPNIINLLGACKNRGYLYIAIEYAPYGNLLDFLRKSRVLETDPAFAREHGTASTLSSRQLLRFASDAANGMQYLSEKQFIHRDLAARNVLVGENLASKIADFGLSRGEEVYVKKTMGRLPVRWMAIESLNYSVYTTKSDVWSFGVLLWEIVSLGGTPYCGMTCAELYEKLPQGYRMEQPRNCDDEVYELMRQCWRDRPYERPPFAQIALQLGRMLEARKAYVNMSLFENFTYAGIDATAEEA
UniProt P19022, residues 160-906: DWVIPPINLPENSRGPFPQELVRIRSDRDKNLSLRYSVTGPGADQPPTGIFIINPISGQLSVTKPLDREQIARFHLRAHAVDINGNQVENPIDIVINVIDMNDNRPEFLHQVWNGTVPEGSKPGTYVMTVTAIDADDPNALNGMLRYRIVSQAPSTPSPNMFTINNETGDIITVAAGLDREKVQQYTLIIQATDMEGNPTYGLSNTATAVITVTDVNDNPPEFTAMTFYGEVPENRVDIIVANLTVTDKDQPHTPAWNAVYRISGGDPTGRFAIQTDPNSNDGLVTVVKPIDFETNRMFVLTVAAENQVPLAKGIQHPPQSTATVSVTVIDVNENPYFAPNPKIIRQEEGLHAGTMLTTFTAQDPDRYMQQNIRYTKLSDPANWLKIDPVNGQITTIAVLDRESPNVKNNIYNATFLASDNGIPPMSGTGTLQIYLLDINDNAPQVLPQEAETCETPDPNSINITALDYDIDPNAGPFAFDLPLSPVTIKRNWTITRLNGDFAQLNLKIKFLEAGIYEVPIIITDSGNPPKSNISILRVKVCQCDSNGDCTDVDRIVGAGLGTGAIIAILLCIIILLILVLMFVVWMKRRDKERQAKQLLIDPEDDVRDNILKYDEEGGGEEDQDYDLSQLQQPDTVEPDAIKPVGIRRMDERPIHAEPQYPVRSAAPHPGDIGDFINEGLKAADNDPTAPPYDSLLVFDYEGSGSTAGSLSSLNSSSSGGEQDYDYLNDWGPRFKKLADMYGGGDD
UniProt Q9NZQ7: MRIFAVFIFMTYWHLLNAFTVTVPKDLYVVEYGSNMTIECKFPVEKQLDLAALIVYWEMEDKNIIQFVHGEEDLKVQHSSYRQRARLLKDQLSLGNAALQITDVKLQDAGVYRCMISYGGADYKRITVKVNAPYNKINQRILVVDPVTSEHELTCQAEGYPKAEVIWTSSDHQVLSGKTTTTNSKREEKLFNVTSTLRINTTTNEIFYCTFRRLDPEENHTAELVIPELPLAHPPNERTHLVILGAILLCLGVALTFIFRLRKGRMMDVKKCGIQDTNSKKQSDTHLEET

How the values were obtained:
[1] = molecular target: T1, full length human PCDH7 expressed in HEK293 cells (human) (UniProt O60245); assay: flow cytometry on cells; HEK293 cells transfected with full length human PCDH7; 5 μg/mL purified Fc-tagged protein in 1% BSA for 1 h at 4 °C; detected with anti-human-Fc FITC; FITC geometric mean; only the binder purified
T1 sequence: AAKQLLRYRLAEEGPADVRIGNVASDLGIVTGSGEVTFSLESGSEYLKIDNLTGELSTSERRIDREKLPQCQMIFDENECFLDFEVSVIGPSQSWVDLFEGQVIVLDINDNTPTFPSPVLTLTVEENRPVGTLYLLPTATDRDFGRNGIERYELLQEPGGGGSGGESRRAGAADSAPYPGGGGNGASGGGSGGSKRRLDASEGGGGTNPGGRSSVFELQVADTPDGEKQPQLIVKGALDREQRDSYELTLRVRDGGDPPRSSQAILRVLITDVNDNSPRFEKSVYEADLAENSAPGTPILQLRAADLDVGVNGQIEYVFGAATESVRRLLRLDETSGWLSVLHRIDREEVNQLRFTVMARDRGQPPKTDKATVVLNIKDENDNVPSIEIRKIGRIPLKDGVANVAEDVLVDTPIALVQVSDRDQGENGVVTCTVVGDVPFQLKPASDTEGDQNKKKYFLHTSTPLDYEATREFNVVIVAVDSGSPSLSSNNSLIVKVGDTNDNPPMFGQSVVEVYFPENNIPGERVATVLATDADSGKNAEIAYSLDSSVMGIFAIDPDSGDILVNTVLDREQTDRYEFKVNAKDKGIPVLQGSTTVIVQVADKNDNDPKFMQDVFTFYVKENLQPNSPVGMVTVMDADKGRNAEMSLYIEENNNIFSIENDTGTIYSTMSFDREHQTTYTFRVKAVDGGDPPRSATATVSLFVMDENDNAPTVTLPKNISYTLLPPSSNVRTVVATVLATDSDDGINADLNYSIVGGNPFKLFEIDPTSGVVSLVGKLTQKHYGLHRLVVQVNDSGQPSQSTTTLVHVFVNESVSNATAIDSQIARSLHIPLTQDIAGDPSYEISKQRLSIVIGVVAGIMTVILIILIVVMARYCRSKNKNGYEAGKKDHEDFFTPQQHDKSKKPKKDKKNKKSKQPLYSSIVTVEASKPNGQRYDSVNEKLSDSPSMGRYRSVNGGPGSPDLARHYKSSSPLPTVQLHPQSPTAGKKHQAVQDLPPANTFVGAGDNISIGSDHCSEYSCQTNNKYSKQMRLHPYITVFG

[2] = molecular target: T2, Protocadherin 7 (PCDH7), clone of the single-pass transmembrane protein library expressed in COS-7 cells (UniProt O60245); assay: single-clone expression cloning screen (binding of a purified Fc-tagged bait to transfected cells, fluorescence imaging); COS7 cells in 384-well plates, each well transfected with one library clone, 48 h; blocked with 1% BSA; GluN1-NTD-Fc 10 μg/mL for 1 h at 4 °C; fixed; detected with Alexa Fluor-488 anti-human IgG; z-score threshold > 5; duplicate plates; only the binder purified
T2 sequence: T1 sequence

[3] = molecular target: TIE1, clone of the single-pass transmembrane protein library expressed in COS-7 cells (UniProt P35590); assay: as above
[4] = molecular target: N-Cadherin, clone of the single-pass transmembrane protein library expressed in COS-7 cells (UniProt P19022); assay: as above
[5] = molecular target: T3, ARMCX3, clone of the single-pass transmembrane protein library expressed in COS-7 cells (UniProt Q9UH62); assay: as above
T3 sequence: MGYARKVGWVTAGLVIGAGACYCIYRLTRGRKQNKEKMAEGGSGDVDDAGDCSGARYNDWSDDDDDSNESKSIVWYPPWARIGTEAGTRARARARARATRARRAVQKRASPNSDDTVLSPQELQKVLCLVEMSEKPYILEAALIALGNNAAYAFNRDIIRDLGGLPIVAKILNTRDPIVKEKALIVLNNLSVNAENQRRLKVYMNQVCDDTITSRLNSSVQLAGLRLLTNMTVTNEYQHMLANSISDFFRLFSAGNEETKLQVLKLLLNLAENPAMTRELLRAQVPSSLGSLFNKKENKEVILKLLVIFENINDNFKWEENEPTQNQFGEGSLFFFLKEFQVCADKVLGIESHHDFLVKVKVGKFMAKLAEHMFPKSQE

| binding [1] | binding [2] | binding [3] | binding [4] | binding [5] | Substance |
| --- | --- | --- | --- | --- | --- |
| no binding (tested: 5 μg/mL) | – | – | – | – | PD-L1-Fc control protein (from UniProt Q9NZQ7 19-238) (Fc fusion) |
| binds | binds | no binding (tested: 10 μg/mL) | no binding (tested: 10 μg/mL) | no binding (tested: 10 μg/mL) | GluN1-NTD-Fc (human GRIN1 D23-Q393 fused to the Fc portion of human IgG1) (from UniProt Q05586 23-393) (Fc fusion) |
